# Reference: paper PMC4336329 (PLoS ONE, 2015)
# In all, about 310,000 compounds went through this assay and about 2,200 (0.71%) showed an effect of 50% or more. Effects have a minus sign here. Some of the results follow.
# Target: human ether-à-go-go-related gene (hERG) potassium channel (human, UniProt Q12809)
# Experiment: primary screen, population patch clamp on CHO cells stably expressing hERG
# Sequence of human ether-à-go-go-related gene (hERG) potassium channel (Q12809 whole entry, looked up): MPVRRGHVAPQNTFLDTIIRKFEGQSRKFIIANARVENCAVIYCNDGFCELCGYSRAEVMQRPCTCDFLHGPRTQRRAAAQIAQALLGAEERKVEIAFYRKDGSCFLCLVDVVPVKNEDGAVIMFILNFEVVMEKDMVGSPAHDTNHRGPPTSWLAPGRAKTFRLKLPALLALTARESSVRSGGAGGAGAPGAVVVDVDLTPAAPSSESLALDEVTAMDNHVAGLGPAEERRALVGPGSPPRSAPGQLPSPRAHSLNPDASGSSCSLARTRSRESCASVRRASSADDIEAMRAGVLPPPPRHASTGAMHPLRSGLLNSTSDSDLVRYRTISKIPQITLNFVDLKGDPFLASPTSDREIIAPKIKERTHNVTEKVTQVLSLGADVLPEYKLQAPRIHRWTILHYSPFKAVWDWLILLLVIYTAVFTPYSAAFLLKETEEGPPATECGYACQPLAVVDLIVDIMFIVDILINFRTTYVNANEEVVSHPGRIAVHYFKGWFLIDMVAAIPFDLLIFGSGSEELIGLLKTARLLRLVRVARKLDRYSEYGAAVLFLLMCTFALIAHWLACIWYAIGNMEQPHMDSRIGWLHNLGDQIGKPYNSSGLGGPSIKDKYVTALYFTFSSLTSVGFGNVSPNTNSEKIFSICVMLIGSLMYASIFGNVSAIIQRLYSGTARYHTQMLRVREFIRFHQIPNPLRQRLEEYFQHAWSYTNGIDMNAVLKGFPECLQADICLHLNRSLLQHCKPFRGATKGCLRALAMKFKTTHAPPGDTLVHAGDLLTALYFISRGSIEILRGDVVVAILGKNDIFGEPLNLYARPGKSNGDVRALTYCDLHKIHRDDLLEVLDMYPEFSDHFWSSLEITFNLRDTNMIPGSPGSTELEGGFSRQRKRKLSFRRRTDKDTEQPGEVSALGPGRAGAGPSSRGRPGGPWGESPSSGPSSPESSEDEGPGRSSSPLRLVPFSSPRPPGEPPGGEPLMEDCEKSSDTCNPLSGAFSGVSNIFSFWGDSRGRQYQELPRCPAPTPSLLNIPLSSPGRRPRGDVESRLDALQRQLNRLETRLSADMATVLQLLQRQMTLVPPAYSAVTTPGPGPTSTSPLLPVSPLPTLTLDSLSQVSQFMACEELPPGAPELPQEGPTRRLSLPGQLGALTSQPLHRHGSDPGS
row,SMILES,"hERG current change (%, negative = inhibition) at 1uM"
1,CNC(=O)c1ccsc1NC(=O)CS(=O)(=O)c1ccc(Cl)cc1,-5.38%
2,Cc1noc(C)c1CN1C(=O)c2cccc([N+](=O)[O-])c2C1=O,18.8%
3,Cc1ccc(C)c(S(=O)(=O)N2CCN(C(=O)/C=C/c3ccco3)CC2)c1,1.6%
4,CCOC(=O)C1=C(C)NC(C)=C(C(=O)OCC)C1/C=C/c1ccccc1OC,8.28%
5,Cc1nn(-c2ccccc2)c(NC(=O)c2cccs2)c(-c2ccc(Cl)cc2)c1=O,13.2%
6,CCCCOC(=O)c1ccc(NC(C)=O)cc1,-6.18%
7,COc1ccc(-n2c(COc3ccccc3)nnc2SCc2ccc(C#N)cc2)cc1,2.48%
8,Cc1cccc(C)c1NC(=O)CCCSc1nnc(-c2ccco2)o1,-10.7%
9,O=c1ccn([C@H]2C[C@H](O)[C@@H](CO)O2)c(=O)[nH]1,-1.42%
10,Cc1ccc(Cl)cc1N1CCN(C(=O)C(C)n2ncn3cccc3c2=O)CC1 (stereo not shown),15.3%
11,C=CCn1c(-c2cccc(OCC)c2)n[nH]c1=S,-5.08%
12,COc1ccc2cc(C(c3nnnn3Cc3ccccc3)N3CCCCCC3)c(=O)[nH]c2c1 (stereo not shown),-4.41%
13,CC(=O)c1sc2nc(SCC(=O)NCCc3ccccc3)[nH]c(=O)c2c1C,8.64%
14,CCCC1CC(C(=O)Nc2ccccc2)C(=O)O1 (stereo not shown),8.16%
15,CC1CN(C(=O)C2CCCN2S(=O)(=O)c2ccc(Cl)cc2)CC(C)O1 (stereo not shown),9.01%
16,Nc1ccccc1-c1nnc(SCc2ccccc2Cl)[nH]c1=O,8.25%
17,COc1ccc(N(C(=O)CSCC(=O)Nc2cc(C)on2)C(C(=O)NC2CCCCC2)c2ccc(O)c(O)c2)cc1 (stereo not shown),12%
18,COc1cc(C(F)(F)F)nc2c(Br)c(C(C)(C)C)nn12,13.2%
19,COc1ccc(NC(=O)CSc2nnnn2-c2ccc(OC)cc2)cc1,10.2%
20,COc1cc(C(=O)OCC(=O)N2CCC(C)CC2)cc2c1OCCO2,11.4%
21,CC1(CCc2ccccc2)NC(=S)N(c2ccc(Cl)cc2)N1 (stereo not shown),8.93%
22,COc1ccc(C2(C)NC(=O)N(CC(=O)NC3(C#N)CCCCC3)C2=O)cc1 (stereo not shown),8.72%

row,SMILES,"hERG current change (%, negative = inhibition) at 1uM"
1,O=C(C[n+]1ccc(-c2ccccc2)cc1)Nc1ccc([N+](=O)[O-])cc1.[Br-],-2.42%
2,CCc1cc(C(=O)NCC2CCCO2)sc1C (stereo not shown),12.9%
3,Cc1cccc2sc(NNC(=O)c3ccc(S(=O)(=O)N4CC(C)CC(C)C4)cc3)nc12 (stereo not shown),13.4%
4,CSCCOC(=O)c1[nH]c2c(c1C)C(=O)CC(c1ccco1)C2 (stereo not shown),2.07%
5,CCCCN(C)C(=O)c1ccc2c(c1)N(CC)C(=O)c1ccccc1S2=O (stereo not shown),11.7%
6,CC1(c2nnc(-c3ccc(Cl)cc3)o2)CC(c2ccncc2)=NO1 (stereo not shown),7.93%
7,CCN(CC)CCCN1C=C2C(=O)C(C)(OC(=O)C3CCCC3)C(=O)C(c3ccccc3)=C2C=C1CCCC(=O)OC (stereo not shown),14.1%
8,N#CCCN1CCN(C(=S)c2ccc(-c3ccc(Cl)cc3)o2)CC1,-25.7%
9,C=CCNc1nc2c(c(=O)[nH]c(=O)n2C)n1CCCCC,-3.03%
10,S=C1NC2=C(CCCC2=C2SCCS2)C(c2ccccc2)N1 (stereo not shown),11.8%
11,CCCCNc1ccc(C(=O)OCCOCCOCCOCCOCCOCCOCCOCCOCCOC)cc1,0.0554%
12,COc1ccc(-c2ccnc3[nH]n(-c4ccccc4)c(=O)c23)cc1,11.2%
13,CCOc1ccc(C(=O)NCC(C)CN(C)C)cc1OCC (stereo not shown),-8.57%
14,Cc1cccc(C)c1OCCOCCN1CCN(C)CC1,-7.23%
15,Cc1oc(-c2ccccc2F)nc1CN1CCC(C(=O)NC2CCCc3ccccc32)CC1 (stereo not shown),-11.7%
16,COc1ccc(CN2CCN(CCCCOc3ccc(Cl)cc3)CC2)c(OC)c1OC.O=C(O)C(=O)O,-31.7%
17,O=C(COC(=O)c1cccs1)Nc1ccc(F)c(F)c1,10.7%
18,C=CCNC(=O)C(=O)N/N=C/c1ccco1,5.31%
19,Fc1ccccc1N1CCN(Cc2cnc(Cl)s2)CC1,9.64%
20,CC(=O)c1sc(NC(=O)c2ccc(C)c(C)c2)nc1C,3.54%
21,Nn1c(SCC(=O)Nc2ccc(S(N)(=O)=O)cc2)nnc1-c1ccco1,1.56%
22,Cc1cc(=O)oc2cc(OCC(=O)OCC(=O)NC(=O)NC(C)C)ccc12,10.9%

row,SMILES,"hERG current change (%, negative = inhibition) at 1uM"
1,CCCCN1C(=O)NC(=O)C2(Cc3c(nc4c(C)cccn4c3=O)N3CCc4ccccc4C32)C1=O (stereo not shown),-11.8%
2,COc1ccc(OCC(=O)N2CCCC(N3CCN(c4ccccc4C)CC3)C2)cc1 (stereo not shown),-42.6%
3,COc1nc2ccccc2c(=O)n1OCC(C)C,7.22%
4,Clc1ccc(/C=C/c2ncc[nH]2)c(Cl)c1,5.13%
5,CCN(CC)CCN1C(=O)Cn2c(C)c(C)c3cccc1c32.O=C(O)C(O)C(O)C(=O)O,-56.1%
6,COc1cccc(CNC(=O)C2CCN(S(=O)(=O)c3ccc4c(c3)CC(C)N4C(=O)C3CC3)CC2)c1 (stereo not shown),11.7%
7,Cc1ccc2c3c([nH]c2c1C)-c1nonc1CC3,15.6%
8,CCN(CCCNc1ncnc2nc[nH]c12)c1cccc(C)c1,-1.95%
9,Cn1c(O)c(C(=O)c2ccccc2F)c(=O)n(C)c1=O,9.92%
10,CCOc1cccc2sc(N(CCCN(C)C)C(=O)c3ccc(S(=O)(=O)N(C)Cc4ccccc4)cc3)nc12.Cl,-1.82%
11,CC(C)(C)OC(=O)N[C@@H](CCCCNC(=O)OCc1ccccc1)c1nnc([C@H](CCCCNC(=O)OCc2ccccc2)NC(=O)OC(C)(C)C)o1,5.62%
12,O=[N+]([O-])c1ccccc1CS(=O)(=O)c1ccccc1,-1.73%
13,Cc1ccccc1C(=O)NC(C)c1ccc2c(c1)CCCC2 (stereo not shown),8.7%
14,Nc1nccc(-c2nn(-c3ccc(Cl)cc3)ccc2=O)n1,18.5%
15,COc1ccc(OCCSc2nc3nc(C)cc(C)n3n2)cc1,5.9%
16,Nc1ncnc2c1ncn2CCN1CCCCC1,-3.22%
17,Cc1ccc2c([N+](=O)[O-])c(C)ccc2n1,11.8%
18,C=CCNC(=O)CNS(=O)(=O)c1ccc(F)cc1,0.802%
19,CCOC(=O)C(C)NC(=O)C(NC(=O)C1CCC(CC)CC1)C(C)C (stereo not shown),17.9%
20,O=C(c1cncc(Br)c1)N1CCN(c2ccc([N+](=O)[O-])cc2)CC1,-62.2%
21,O=C(O)COc1ccc(=O)n(-c2ccccc2)n1,10.8%
22,Fc1ccc(Oc2nccc(-c3ccc(Cl)cc3)n2)cc1,-3.21%

row,SMILES,"hERG current change (%, negative = inhibition) at 1uM"
1,CCOC(=O)Cc1csc(NC(=O)c2cc(C)c(C)s2)n1,2.7%
2,COc1ccc(Cl)cc1NC1=NCC(C)S1 (stereo not shown),0.429%
3,CS(=O)(=O)Oc1ccc2c(c1)O/C(=C\C=C\c1ccccc1)C2=O,-0.714%
4,COc1ccc(OC)c(-c2csc(NC(=O)Cn3[nH]c(=O)c4ccccc4c3=O)n2)c1,3.02%
5,O=C(c1cccnc1)N1c2ccccc2Sc2ccccc21,7.36%
6,O=C(CCCn1cc([N+](=O)[O-])cn1)NCc1ccccc1,3.22%
7,CC(=O)Nc1ccc(N(C(=O)c2cnccn2)C(C(=O)NC2CCCCC2)c2ccc(F)cc2)cc1 (stereo not shown),12.5%
8,CC(=O)OCC(=O)NCCCOc1cccc(CN2CCCCC2)c1.Cl,4.98%
9,Cc1sc2c(c1C)C(c1cccs1)=NCC(=O)N2CC(=O)NCc1cccs1,-13.7%
10,CCOC(=O)Cc1csc(NC(=S)NC(=O)c2ccccc2)n1,6.68%
11,CCN(CC)S(=O)(=O)c1cccc(C(=O)OCC(=O)Nc2ccc3c(c2)c2ccccc2n3CC)c1,10.7%
12,CCOC(=O)C1=C(N)Oc2cc(C)oc(=O)c2C12C(=O)N1c3c(cccc32)C(C)=CC1(C)C (stereo not shown),5.25%
13,CC1CCc2nn(CC(=O)Nc3c(F)cc(F)cc3Br)cc2C1 (stereo not shown),10.1%
14,Cc1cc(C)n2nc(C(=O)N/N=C/c3c4ccccc4cc4ccccc34)nc2n1,1.16%
15,Cc1[nH]c(C)c(S(=O)(=O)Nc2cccc(Cl)c2C)c1C(=O)N1CCCCC1,5.34%
16,O=C(c1ccc(Br)o1)N1CCN(c2ccc3nnc(-c4ccc(F)cc4)n3n2)CC1,5.43%
17,O=C(OCc1nnc(-c2ccc(Cl)cc2)o1)c1ccncc1,3.31%
18,Cc1cc2nc(CCl)cc(=O)n2[nH]1,14.7%
19,COc1ccc(/C=N/NC(=O)CCC(=O)Nc2ccccc2)cc1OC,-15.7%
20,N#Cc1ccc(C(c2nnnn2CCc2ccccc2)N2CCCCCC2)cc1 (stereo not shown),2.41%
21,O=C(CCNC(=O)c1ccccc1)OCC(=O)c1cccc(Cl)c1,-14.2%
22,CCOc1ccc2cc(S(=O)(=O)N3CCCCC3)ccc2c1,15.9%
